Test results taken from PubChem BioAssay AID1240 (Sanford-Burnham Center for Chemical Genomics, 2008).
Out of some 50,000 compounds screened, about 800 (1.6%) showed an effect of 50% or more. Some of the results follow.

Biological target: Bcl-2-like protein 10 (Homo sapiens) (UniProt Q9HD36)
Assay: TR3 peptide-Bcl-B binding displacers, biochemical primary FP assay, phenotype converters (AID 1240);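 further: 0% = Bcl-B with tracer peptide and DMSO and 100% = tracer peptide lacking Bcl-B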
Conditions: GST-Bcl-B / FITC-TR3 peptide fluorescence polarization; stronger effect = higher value; compound at 3.75 mg/L

UniProt Q9HD36, sequence (Q9HD36 whole entry, looked up): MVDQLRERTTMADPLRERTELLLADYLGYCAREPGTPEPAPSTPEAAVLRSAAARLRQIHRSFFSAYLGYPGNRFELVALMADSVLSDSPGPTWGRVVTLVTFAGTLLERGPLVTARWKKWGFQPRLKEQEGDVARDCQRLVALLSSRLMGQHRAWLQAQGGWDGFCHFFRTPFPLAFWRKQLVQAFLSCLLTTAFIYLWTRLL

Row | Compound | displacement [%]
1 | Cc1ccc(-c2ccc(/C=C3/SC(=O)NC3=O)o2)c(Br)c1 | 5.6
2 | Cc1nc2ccccc2n1C(=O)c1ccc(Cl)cc1[N+](=O)[O-] | 4.5
3 | CCOC1=NC(C(F)(F)F)(C(F)(F)F)N=C(N=C(SC)SC)O1 | 5.5
4 | COC(=O)C1=C(C(=O)OC)SC(=C2C(=S)C(C)(C)N(C(=O)c3ccc4ccccc4c3)c3ccccc32)S1 | -4.1
5 | CCOc1ccc(/C=C2\SC(=S)N(CCC(=O)N3CCOCC3)C2=O)cc1 | 100
6 | c1ccc(N2Cc3cc4c(cc3C2)CN(c2ccccc2)C4)cc1 | -0.8
7 | COCCCNS(=O)(=O)c1c(C)cc(C)cc1C | -8.4
8 | Cc1cc(OCC(O)CNC(C)C)cc(C)c1Cl (stereo not given) | 3.1
9 | C=CCOc1ccc(/C=C/C(=O)c2ccc(C)cc2)cc1 | 10.6
10 | O=C(c1ccccc1)N1CCN(c2cc(N3CCCCC3)c(F)cc2[N+](=O)[O-])CC1 | -11
11 | O=C(CN1C2=NCCN2c2ccccc21)c1cccc([N+](=O)[O-])c1 | 5.1
12 | Brc1ccc(CN2CCN(Cc3ccncc3)CC2)cc1 | 1.1
13 | O=C(/C=C/c1ccc([N+](=O)[O-])cc1)Nc1ccc2c(c1)OCO2 | -1.1
14 | COc1ccc(CCNC(=O)C(=O)Nc2cccc(Cl)c2Cl)cc1OC | 17.2
15 | CCOc1ccc(C(=O)Nc2c(C)cccc2C)cc1Br | -4.8
16 | O=C(Nc1ccc(Cl)c(Cl)c1)c1cccc([N+](=O)[O-])c1 | -3.7
17 | O=C(O)/C=C/C(=O)Nc1ccc(-c2ccc(NC(=O)/C=C/C(=O)O)cc2)cc1 | 14.8
18 | Nc1c(C(=O)C2CC2)sc2nc3c(cc12)CCCC3 | 8.8
19 | COc1ccc(CCNS(=O)(=O)c2cccc([N+](=O)[O-])c2)cc1 | -2.2
20 | Cc1ccc(OCCOc2ccc(Br)cc2C=C2C(=O)NC(=S)NC2=O)cc1 | -23.5
21 | Cc1ccc(N=Cc2ccc(OC3CSC3)cc2)cc1C | -2.3
22 | Cc1ccc(NC(=O)CSc2ccc(Cl)cc2Cl)cc1 | 7.9
23 | O=C1NC2=Nc3ccccc3NC(c3ccccc3)=C2C(c2cccc3ncccc23)N1 (stereo not given) | 8.7
24 | CCCOc1cccc(C(=O)Nc2sc(CC)cc2C(=O)OC)c1 | 1.7
25 | CCN1C(=O)/C(=C\c2cn(CCOc3ccccc3C)c3ccccc23)SC1=S | 127
26 | Cc1ccc(C(=O)Nc2c(C(=O)N3CCN(Cc4ccccc4)CC3)cnn2-c2ccccc2)cc1 | 7.8
27 | O=C(Nc1ccncc1)Nc1ccccn1 | 10.4
28 | CCCC(=O)NC(c1ccc(OC)cc1)c1ccc(OCC)cc1 (stereo not given) | -8.1
29 | COc1ccc(C(CC(=O)N2CCOCC2)c2ccccc2)cc1 (stereo not given) | -0.6
30 | O=C(/C=C/c1ccc(OC2CSC2)cc1)c1ccc(Cl)cc1 | -2.4
